# Data as given in the supplement of paper PMC8047034.
# Counter-ions that a name gives are not always drawn. The list shows a part of the results. Many values rest on one well or one pass, so single values are uncertain.
# System: OVCAR4
# Assay: log2 surviving fraction (library drug vs vehicle, or drug + carboplatin vs carboplatin alone; relative to plate median); ovarian cancer lines: OVCAR4 is platinum-sensitive and Ov4Carbo platinum-resistant; higher = more cell survival
# Conditions: library drug concentration 10 µM; 7 days; carboplatin co-treatment 5 µM
row,SMILES,log2 surviving fraction
1,C=C[C@]1(C)C[C@@H](OC(=O)CSC(C)(C)CNC(=O)[C@H](N)C(C)C)[C@]2(C)[C@H](C)CC[C@]3(CCC(=O)[C@H]32)[C@@H](C)[C@@H]1O [Valnemulin HCl],-0.836
2,O=C(c1ccccc1)c1ccc2n1CCC2C(=O)O (stereo not given) [Ketorolac (Toradol)],0.849
3,CC(C)(C)c1nc(-c2cccc(NS(=O)(=O)c3c(F)cccc3F)c2F)c(-c2ccnc(N)n2)s1,-0.72
4,CN1CCN2c3ccccc3Cc3ccccc3C2C1 (stereo not given) [Mianserin hydrochloride],0.586
5,CC(C(=O)O)c1ccc2c(c1)CC(=O)c1ccccc1S2 (stereo not given) [Zaltoprofen],-0.0566
6,Nc1ccn([C@H]2CC[C@@H](CO)O2)c(=O)n1 [Zalcitabine],-0.159
7,CC[C@@H](C(N)=O)N1CCCC1=O [Levetiracetam],-0.369
8,Cc1cn([C@H]2C=C[C@@H](CO)O2)c(=O)[nH]c1=O [Stavudine],0.169
9,CNC[C@H](O)c1ccc(O)c(O)c1 [Epinephrine bitartrate (Adrenalinium)],-0.447
10,CCN(CC)CCNC(C(=O)OCCC(C)C)c1ccccc1 (stereo not given) [Camylofin Chlorhydrate],-1.51
11,CN1C(CCl)Nc2cc(Cl)c(S(N)(=O)=O)cc2S1(=O)=O (stereo not given) [Methyclothiazide],-0.334
12,CN1C[C@@H]2C[C@H]1CN2c1cc2c(cc1F)c(=O)c(C(=O)O)cn2C1CC1 [Danofloxacin Mesylate],-0.24
13,CCCCC(CC)CNC(=N)NC(=N)NCCCCCCNC(=N)NC(=N)NCC(CC)CCCC (stereo not given) [Alexidine HCl],-7.64
14,"CO[C@H]1/C=C/O[C@@]2(C)Oc3c(C)c(O)c4c(O)c(c(/C=N/N5CCN(C)CC5)c(O)c4c3C2=O)NC(=O)/C(C)=C\C=C\[C@H](C)[C@H](O)[C@@H](C)[C@@H](O)[C@@H](C)[C@H](OC(C)=O)[C@@H]1C [Rifampin (Rifadin, Rimactane)]",0.564
15,CC[C@H]1CN2CCc3cc(OC)c(OC)cc3[C@@H]2C[C@@H]1C[C@H]1NCCc2cc(OC)c(OC)cc21 [Emetine],-7.92
16,COC(=O)CCc1ccc(OCC(O)CNC(C)C)cc1 (stereo not given) [Esmolol HCl],0.019
17,O=C(Nc1ccccc1)c1ccccc1O [Salicylanilide],-0.197
18,CC(C)OC(=O)OCOP(=O)(CO[C@H](C)Cn1cnc2c(N)ncnc21)OCOC(=O)OC(C)C [Tenofovir Disoproxil Fumarate],-2.92
19,CN(C)C(=O)Oc1ccc[n+](C)c1 [Pyridostigmine Bromide (Mestinon)],-0.015
20,N=C(N)NS(=O)(=O)c1ccc(N)cc1 [Sulfaguanidine],0.344

row,SMILES,log2 surviving fraction
1,Cc1cc(N)c2ccccc2[n+]1CCCCCCCCCC[n+]1c(C)cc(N)c2ccccc21 [Dequalinium chloride],-6.38
2,c1ccc2c(c1)sc1ccccc12 [Dibenzothiophene],-0.158
3,CC1(C)O[C@@H]2C[C@H]3[C@@H]4CCC5=CC(=O)C=C[C@]5(C)[C@@]4(F)[C@@H](O)C[C@]3(C)[C@]2(C(=O)CO)O1 [Triamcinolone Acetonide],0.0103
4,CCOC(=O)C1=C[C@@H](OC(CC)CC)[C@H](NC(C)=O)[C@@H](N)C1 [Oseltamivir phosphate (Tamiflu)],0.368
5,CC(C)NCC(O)COc1cccc2[nH]ccc12 (stereo not given) [Pindolol],1.35
6,CCOC(=O)c1c(CSc2ccccc2)n(C)c2cc(Br)c(O)c(CN(C)C)c12 [Arbidol HCl],-1.14
7,CC1COc2c(N3CCN(C)CC3)c(F)cc3c(=O)c(C(=O)O)cn1c23 (stereo not given) [Ofloxacin (Floxin)],0.524
8,COc1cc(OC)c(C(=O)CCCN2CCCC2)c(OC)c1 [Buflomedil HCl],0.379
9,CC[N+]1(C)CCCC(OC(=O)C(O)(c2ccccc2)c2ccccc2)C1 (stereo not given) [Pipenzolate Bromide],-0.453
10,CC[C@@H]1C(=O)OC[C@@H]1Cc1cncn1C [Pilocarpine HCl],1.31
11,CCC(C)(C)C(=O)O[C@H]1C[C@@H](C)C=C2C=C[C@H](C)[C@H](CC[C@@H]3C[C@@H](O)CC(=O)O3)[C@H]21 [Simvastatin (Zocor)],-3.99
12,C[C@@H](O[C@H]1OCCN(Cc2nn(P(=O)(O)O)c(=O)[nH]2)[C@H]1c1ccc(F)cc1)c1cc(C(F)(F)F)cc(C(F)(F)F)c1 [Fosaprepitant dimeglumine],-2.01
13,CCCCCN(C)CCC(O)(P(=O)(O)O)P(=O)(O)O [Ibandronate sodium],-3.73
14,CCOC(=O)[C@H](CCc1ccccc1)N[C@@H](C)C(=O)N1Cc2ccccc2C[C@H]1C(=O)O [Quinapril HCl (Accupril)],0.612
15,O=C1NCC2(CCN(CCc3ccccc3)CC2)O1 [Fenspiride HCl],0.506
16,CN[C@@H]1[C@H](O)[C@H](NC)[C@H]2O[C@@]3(O)C(=O)C[C@@H](C)O[C@H]3O[C@@H]2[C@H]1O [Spectinomycin  hydrochloride],0.681
17,CN(C)[C@@H](CCOc1cccc2ccccc12)c1ccccc1 [Dapoxetine hydrochloride (Priligy)],-0.666
18,CN(C)C(=O)Oc1cccc([N+](C)(C)C)c1 [Neostigmine bromide (Prostigmin)],-0.117
19,C[C@]12CC[C@@H]3c4ccc(O)cc4CC[C@H]3[C@@H]1CCC2=O [Estrone],-0.464
20,C=C(c1ccc(C(=O)O)cc1)c1cc2c(cc1C)C(C)(C)CCC2(C)C [Bexarotene],-0.0143
